“And” between values parts separate entries of the source, which are not always exact repeats. Equal entries are not always repeated.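 Growth conditions: 96-well plates. Treatment: test compound, 48 hours, 5 concentrations. Analysis: linear interpolation between bracketing concentrations; unreached endpoints set to highest concentration. Abbreviation: GI50, concentration required for 50% inhibition of growth. Definition used: TGI = concentration required for complete inhibition of growth.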 Peptide text beside a SMILES is read from it. * marks the point of attachment. Boc = CC(C)(C)OC(=O)*; OBn = c1ccc(CO*)cc1

In the test the test system is NCI-H322M lung. The test can be described thus: NCI anticancer screen, dose series, 48 h.
On to `CC(C)/C(Cl)=N\OC(=O)Nc1ccc(F)cc1F`, for which the TGI was 19.1 µM.
Turning to `CCCCNC(=O)NS(=O)(=O)c1ccc(N2N=C(c3cc(C)ccc3C)CC2c2cc(OC)c(OC)c(OC)c2)cc1` (configuration not stated), the GI50 is 3.35 µM and the TGI was 13.9 µM.
For the compound `O=c1c2cn[nH]c2nc2scc(-c3ccc(Cl)cc3)n12`, the TGI was more than 100 µM.
As to `O=C1c2ccccc2CC1C1(O)C(=O)Nc2ccccc21` (configuration not stated), the TGI was more than 100 µM.
The same measure, in the same setting: the result for `Clc1nc(Cl)c(-c2ccccc2)c(Cl)n1` reads 26.3 µM.
In turn, `COc1ccc(-c2c3c(nc4nc(SC)nc(SC)c24)CCCC3)cc1OC` came in with a TGI of more than 100 µM.
In the case of `FC(F)(F)c1ccc(-c2cnc(Cl)nc2NCc2cc(C(F)(F)F)cc(C(F)(F)F)c2)cc1`, the GI50 is 3.52 µM and the TGI is more than 100 µM.
For `Nc1n[nH]c2cccc(C#Cc3cccc(C(=O)Nc4cc(CN5CCOCC5)cc(C(F)(F)F)c4)c3)c12` the same measures were 5.43 µM and 18.7 µM.
Regarding `CCOC(=O)Nc1nn(C)c(=NCc2ccccc2)s1`, the TGI is more than 100 µM.
The same measure, in the same setting: with `CC#CC1C(OC(=O)c2ccccc2)CCCC1(CI)N=[N+]=[N-]` (configuration not stated) the figure was more than 100 µM.
The same measure, in the same setting: the result for `Cc1cc2nc(-c3c(F)cccc3F)n(Cc3c(F)cccc3F)c2cc1C` reads 37.6 µM.
As for `N=C(N)c1ccc(COc2ccccc2OCc2ccc(C(=N)N)cc2)cc1`, the GI50 is 48.1 µM and the TGI was more than 100 µM.
The compound `CCOC(=O)C1(C/C=C\CBr)CCCCCCCCCCC1=O` (configuration not stated) showed a TGI of 33.1 µM.
Take `Cc1ccc(S(=O)(=O)n2c3c(c4ccccc42)CCN2CCC(Br)C[C@@H]32)cc1` (some centres not stated): the TGI is 37.2 µM.
The same measure, in the same setting: with `CCCC(Sc1ccccc1)P(=O)(c1ccccc1)c1ccccc1` (configuration not stated) the figure was more than 100 µM.
Take `Cc1c(Cl)cccc1NC1=C(Cl)C(=O)N(Cc2ccccc2)C1=O`: the GI50 is 1.22 µM and the TGI is 8.71 µM.
For `O=C(Nc1nc(=S)c2c(ncn2CCO)[nH]1)c1ccccc1`, the TGI was more than 100 µM.
For the compound `CN1CCN(c2cc(-c3cc4ccccc4o3)oc(=O)c2C#N)CC1`, the TGI is more than 100 µM.
In turn, `COc1cccc(C2SCC(=O)N2c2ccc(-n3c(-c4ccccc4)nc4ccccc4c3=O)cc2)c1OC` (configuration not stated) yielded a TGI of more than 100 µM.
Still for that read-out and setting: the result for `O=C1[C@@H]2C[C@@H](O)CN2C(=O)c2ccccc2N1CCCO` reads more than 100 µM; that for `c1ccc(CSc2nnc3c4ccccc4c4ccccc4c3n2)cc1`, more than 100 µM.
`O=C1CC(C(=O)N2CCCCC2)n2c(=O)n(-c3ccccc3)c(=O)n2C1` (configuration not stated) yielded a TGI of more than 100 µM.
On the same count and under the same terms, the result for `COc1cc(/C=C/C(=O)c2sc(NNC(C)=O)nc2C)ccc1O` reads more than 100 µM.
Turning to `O=C(COc1cccc(/C=C2\COc3ccc(Cl)cc3C2=O)c1)c1ccc(Cl)cc1`, the GI50 was 14.7 µM and the TGI came out at 30.3 µM.
For the compound `c1ccc(P(CCP(CCP(c2ccccc2)c2ccccc2)c2ccccc2)CCP(c2ccccc2)c2ccccc2)cc1` (configuration not stated), the TGI is more than 10 µM.
In turn, `CCN(CC)C(=S)N=Nc1c(O)[nH]c2ccccc12` had a TGI of 11.6 µM.
In turn, `COc1ccc(/C=C2\CCC(CN(C)C)C2=O)cc1OC` (configuration not stated) gave a TGI of 31.7 µM.
The compound `COC(=O)C1=C(C(=O)OC)SC(=C(N=Nc2ccccc2)c2ccccc2)S1` showed a TGI of more than 100 µM.
Turning to `COc1cc2c3c(n(C)c(=O)c2cc1OC)-c1cc2c(cc1/C3=C\C(N)CN)OCO2` (configuration not stated), the GI50 was 1.5 µM and the TGI amounted to 8.81 µM.
Consider `O=C(NCCc1ccccc1)c1c(O)c2ccccc2[nH]c1=O`, for which the TGI is more than 100 µM.
With `CC(C)(C#N)c1cc(C(=O)Nc2cc(Nc3ncccc3-c3ncnc4nc[nH]c34)ccc2F)cc(C(F)(F)F)c1`, the TGI was more than 10 µM.
Turning to `O=C(CCCSc1nc(-c2ccccc2)cc(-c2ccc(Cl)cc2)n1)NO`, the GI50 was 1.26 µM and the TGI was found to be 11.9 µM.
Consider `C=C1C(=O)O[C@H]2[C@H]3O[C@@H](C[C@@H]12)[C@@]1(C)CC[C@H](O1)C(C)=CCC[C@H]3C`, for which the TGI is 17.5 µM.
In turn, `CC12CC(OC(=O)[C@]1(C)O)[C@@H]([C@]1(O)CC[C@H]3[C@@H]4C[C@H]5O[C@]56[C@@H](O)C=CC(=O)[C@]6(C)[C@H]4CC[C@@]31C)C2` (some centres not stated) had a TGI of 47.2 µM.
Consider `CCCOc1nc(SCCC)nc2c1cnn2-c1ccccc1`, for which the GI50 was more than 100 µM and the TGI was more than 100 µM.
On to `O=S(=O)(O)c1ccc2c(N=Nc3ccc(F)cc3)c(O)c(S(=O)(=O)O)cc2c1`, for which the TGI is more than 100 µM.
Consider `CCCCN(CCCC)c1ccc(C(=NC(C)CCCN(CC)CC)c2ccc(N(C)C)cc2)cc1` (configuration not stated), for which the GI50 was 1.05 µM and the TGI stood at 2.67 µM.
With `COc1ccc2c(c1)C(C)Cc1c(Cl)nc(C)nc1N2C` (configuration not stated), the GI50 is 5.86 µM and the TGI stood at 35.6 µM.
In turn, `CN(C)CCn1c(=O)c2ccc3c4c(nn3CCN(C)C)c3cc(O)ccc3n(c1=O)c24` had a TGI of 0.15 µM.
The same measure, in the same setting: with `COC(=O)c1cc(-c2cccn2C)c2c(c1C(=O)OC)c1ccccc1n2C` the figure was more than 100 µM.
As to `CN(C)c1ccc(C(=C2C=CC(=[N+](C)C)C=C2)c2ccc(N(C)C)cc2)cc1`, the GI50 was 0.339 µM; the TGI was 1.33 µM and 1.59 µM.
In the case of `COc1ccc(C(=O)/C=C/c2cccnc2)cc1OC`, the TGI is 27.3 µM.
On to `O=C(c1cccnc1)c1cc(-c2ccccn2)c(=O)n2ccccc12`, for which the GI50 was more than 100 µM and the TGI is more than 100 µM.
With `O=C(OCCBr)c1ccc(Cl)c([N+](=O)[O-])c1`, the GI50 was 2.86 µM and the TGI was 6.96 µM.
With `CCC1CCc2c(OC)ccc(OCC(=O)O)c2C1=O` (configuration not stated), the TGI was more than 100 µM.
On to `Cc1ccc(S(=O)(=O)Nn2c(S)c(C#N)c(-c3ccc([N+](=O)[O-])cc3)c(C#N)c2=O)cc1`, for which the TGI is more than 100 µM.
In the case of `CCOc1ccccc1/C=N\N=C(\N)N/N=C/c1ccccc1OCC`, the GI50 was 4.63 µM and the TGI is more than 100 µM.
On the same counts, the results for `CCCCCCCOc1c(OC)cc(C2CC(=O)Nc3c2c(C)nn3-c2nc3ccccc3[nH]2)cc1OC` (configuration not stated) are 3.64 µM and more than 100 µM.
On to `Nc1nc(N)c2[nH]cnc2n1` (tested in a mixture with another compound), for which the TGI is more than 100 µM.
Turning to `Cc1ccc2c(c1)C(=O)c1c-2n(CCCBr)c(=O)c2cc([N+](=O)[O-])ccc12`, the GI50 was more than 100 µM and the TGI was more than 100 µM.
`COC(=O)C1=C(OC(=O)c2ccc(Cl)cc2)C(C(=O)OC)[C@@]2(O)[C@@H](C(=O)OC)C(c3ccccc3Cl)C[C@@H]1[C@@H]2C(=O)OC` (some centres not stated): the GI50 is 3.3 µM and the TGI was determined as 26.1 µM.
Compound `NC(=O)NC(=O)c1cccc(NC(=O)CF)c1` returned a TGI of more than 100 µM.
As for `Cn1c(=O)c2c(ncn2CCCCOc2ccc3c(c2)[n+]([O-])nc(N)[n+]3[O-])n(C)c1=O`, the TGI is more than 100 µM.
Same read-out and setting: the result for `CC1CCC(C(C)C)C(O[C@@H]2OC(=O)C[C@@H]2Sc2ccccc2)C1` (some centres not stated) reads more than 100 µM; that for `O=C(CCc1cc(-c2ccccc2)nc(=S)[nH]1)Nc1ccccc1[N+](=O)[O-]`, more than 100 µM.
Still for that read-out and setting: the result for `C/C(CC1SCCCS1)=C(/C)CC1SCCCS1` reads more than 100 µM; that for `CCOC(=O)C1=C(Nc2cccc3ccccc23)OC/C1=N\NC(=O)c1ccccc1O`, more than 100 µM.
The same measure, in the same setting: the result for `NNCCc1n[nH]c(=O)n1N` reads more than 100 µM.
In turn, `CC1(C)OC(=O)C2(O1)C(=O)C1CCCCC12` (configuration not stated) came in with a TGI of more than 100 µM.
Still for that read-out and setting: with `O=C1OCC/C1=C/c1ccc(N=Nc2c(O)ccc3ccccc23)cc1` the figure was 69.1 µM.
The same measure, in the same setting: with `CC(NC(=O)C(Cc1ccccc1)NC(=O)C(Cc1ccccc1)NC(=O)OC(C)(C)C)C(=O)OCc1ccccc1` (stereo not drawn) (Boc-Phe-Phe-Ala-OBn; configuration not given here) the figure was more than 100 µM; with `Cc1n[nH]c(=O)n1/N=C\CC/C=N\n1c(C)n[nH]c1=O`, more than 100 µM.
Compound `COc1cc(Oc2nc3c(N)cc(C(F)(F)F)cc3nc2-c2ccccc2)cc(OC)c1OC` had a TGI of more than 100 µM.
For `CC(C)c1ccc(Nc2nccc(-c3cnn4ncccc34)n2)cc1`, the GI50 is 0.952 µM and the TGI was more than 22.3 µM.
Take `CC(C)(CO)NC(=O)Nc1c(C(F)(F)F)cc(-c2ccccc2)[nH]c1=O`: the TGI is more than 100 µM.
Consider `CS(=O)(=O)Nc1ccc(N=Cc2c(O)[nH]c3ccccc23)cc1`, for which the GI50 is more than 20 µM and the TGI is more than 25 µM.
The compound `COC(=O)[C@@]12C(=O)C(C)C(=O)[C@]1(C)C(C)=C[C@H]1[C@]3(C=O)CC[C@H](OC(C)=O)C(C)(C)[C@H]3CC[C@@]12C` (some centres not stated) yielded a TGI of more than 100 µM.
Same read-out and setting: with `c1ccc(C2OCCO2)c(OCCOc2cc(OCCOc3ccccc3C3OCCO3)c(OCCOc3ccccc3C3OCCO3)cc2OCCOc2ccccc2C2OCCO2)c1` the figure was more than 100 µM; with `O=c1[nH]c(-c2ccc(-c3nc4cc([N+](=O)[O-])ccc4c(=O)[nH]3)cc2)nc2cc([N+](=O)[O-])ccc12`, more than 100 µM; with `CC(C)CCc1n[nH]c(=O)n1/N=C\c1ccccc1`, more than 100 µM.
Turning to `O=C(CN1CCN(c2ccccc2)CC1)N1CCN(c2nnc(-c3ccc(Cl)cc3)c(-c3ccc(Cl)cc3)n2)CC1`, the GI50 is more than 100 µM and the TGI is more than 100 µM.
In turn, `Cc1ccc(Nc2nc(NS(=O)(=O)c3cc(C(=O)Nc4ccc(Cl)cc4)c(Cl)cc3S)n[nH]2)cc1` displayed a TGI of more than 100 µM.
The same measure, in the same setting: with `CC(=O)N1N(c2ccc([N+](=O)[O-])cc2)C(=O)C1(C)C` the figure was 94.9 µM; with `C1CCOC2(CCC3(CC2)OCCCCO3)OC1`, more than 100 µM; with `Cc1ccc2c(C)c3ccc4ccccc4c3c[n+]2c1`, 48.6 µM.
Take `Nc1n[nH]c2ccc([C@@H]3Nc4ccc5[nH]ncc5c4[C@H]4C5C=CC(C5)[C@@H]34)cc12` (some centres not stated): the GI50 is 0.783 µM and the TGI is more than 65.3 µM.
With `CCN(CC)c1ccc(C(=N)c2ccc(N(C)C)cc2)cc1`, the GI50 is 3.42 µM and the TGI turned out to be 19.5 µM.
`CCCCOCCOC1=CC(=O)c2c(O)ccc(O)c2C1=O` came in with a TGI of 3.04 µM.
In the case of `COC(C)(C)CCc1[nH]c2ccccc2c1CC(=O)NCCc1cncn1C`, the TGI is more than 100 µM.
In the case of `CC(=O)Nc1ccc(/C=C/C(=O)c2sc(-c3nc(C)c(C(=O)/C=C/c4ccc(NC(C)=O)cc4)s3)nc2C)cc1`, the TGI is more than 100 µM.
Same read-out and setting: the result for `C=C=C(Sc1ccccc1)C(C)(C)OC(C)=O` reads 61.3 µM.
For `CC(C)N1C(NNC(=O)c2cnccn2)=NS(=O)(=O)c2ccccc21`, the GI50 was more than 100 µM and the TGI was more than 100 µM.
Consider `COC1=CC(=O)c2c(O)c3c(c(O)c2C1=O)C=C(C)OC3O` (configuration not stated), for which the TGI is 2.74 µM.

The values are drawn from PubChem BioAssay (NCI).
